Data from publication PMC5429092 (2017).

Tests used:
[1] = target: T1, biotinylated PP1 (AviTag-FL mPP1G 1–323 with C-terminal LE) (UniProt P63087, biotin on the AviTag); test: BLI
[2] = target: T1, biotinylated PP1 (AviTag-FL mPP1G 1–323 …); test: BLI; Sephin1

T1 sequence (P63087 other isoform, or with tags, fused parts or gaps): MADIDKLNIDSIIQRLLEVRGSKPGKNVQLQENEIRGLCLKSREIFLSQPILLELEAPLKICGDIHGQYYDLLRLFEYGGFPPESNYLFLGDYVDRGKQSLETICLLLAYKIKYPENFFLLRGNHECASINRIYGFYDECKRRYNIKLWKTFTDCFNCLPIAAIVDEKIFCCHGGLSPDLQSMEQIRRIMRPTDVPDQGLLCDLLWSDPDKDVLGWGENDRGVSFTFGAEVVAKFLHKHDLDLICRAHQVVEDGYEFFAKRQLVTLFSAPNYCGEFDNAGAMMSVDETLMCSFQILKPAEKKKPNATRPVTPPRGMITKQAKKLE

Kd [1]: 0.49 nM
Kd [2]: 0.63 nM
B1: human PPP1R15A^[…]-MBP (domain or fragment)
chain: EAECPPCIPPPSAFLKAWVYWPGEDTEEEEDEEEDEDSDSGSDEEEGEAEASSSTPATGVFLKSWVYQPGEDTEEEEDEDSDTGSAEDEREAETSASTPPASAFLKAWVYRPGEDTEEEEDEDVDSEDKEDDSEAALGEAESDPHPSHPDQRAHFRGWGYRPGKETEEEEAAEDWGEAEPCPFRVAIYVPGEKPPPPWAPPRLPLRLQRRLKRPETPTHDPDPETPLK[… about 80 residues …]APIPALTQTLPS
